Source: patent US20080311132

Target: C3b, P01024
Sequence (P01024 whole entry, looked up): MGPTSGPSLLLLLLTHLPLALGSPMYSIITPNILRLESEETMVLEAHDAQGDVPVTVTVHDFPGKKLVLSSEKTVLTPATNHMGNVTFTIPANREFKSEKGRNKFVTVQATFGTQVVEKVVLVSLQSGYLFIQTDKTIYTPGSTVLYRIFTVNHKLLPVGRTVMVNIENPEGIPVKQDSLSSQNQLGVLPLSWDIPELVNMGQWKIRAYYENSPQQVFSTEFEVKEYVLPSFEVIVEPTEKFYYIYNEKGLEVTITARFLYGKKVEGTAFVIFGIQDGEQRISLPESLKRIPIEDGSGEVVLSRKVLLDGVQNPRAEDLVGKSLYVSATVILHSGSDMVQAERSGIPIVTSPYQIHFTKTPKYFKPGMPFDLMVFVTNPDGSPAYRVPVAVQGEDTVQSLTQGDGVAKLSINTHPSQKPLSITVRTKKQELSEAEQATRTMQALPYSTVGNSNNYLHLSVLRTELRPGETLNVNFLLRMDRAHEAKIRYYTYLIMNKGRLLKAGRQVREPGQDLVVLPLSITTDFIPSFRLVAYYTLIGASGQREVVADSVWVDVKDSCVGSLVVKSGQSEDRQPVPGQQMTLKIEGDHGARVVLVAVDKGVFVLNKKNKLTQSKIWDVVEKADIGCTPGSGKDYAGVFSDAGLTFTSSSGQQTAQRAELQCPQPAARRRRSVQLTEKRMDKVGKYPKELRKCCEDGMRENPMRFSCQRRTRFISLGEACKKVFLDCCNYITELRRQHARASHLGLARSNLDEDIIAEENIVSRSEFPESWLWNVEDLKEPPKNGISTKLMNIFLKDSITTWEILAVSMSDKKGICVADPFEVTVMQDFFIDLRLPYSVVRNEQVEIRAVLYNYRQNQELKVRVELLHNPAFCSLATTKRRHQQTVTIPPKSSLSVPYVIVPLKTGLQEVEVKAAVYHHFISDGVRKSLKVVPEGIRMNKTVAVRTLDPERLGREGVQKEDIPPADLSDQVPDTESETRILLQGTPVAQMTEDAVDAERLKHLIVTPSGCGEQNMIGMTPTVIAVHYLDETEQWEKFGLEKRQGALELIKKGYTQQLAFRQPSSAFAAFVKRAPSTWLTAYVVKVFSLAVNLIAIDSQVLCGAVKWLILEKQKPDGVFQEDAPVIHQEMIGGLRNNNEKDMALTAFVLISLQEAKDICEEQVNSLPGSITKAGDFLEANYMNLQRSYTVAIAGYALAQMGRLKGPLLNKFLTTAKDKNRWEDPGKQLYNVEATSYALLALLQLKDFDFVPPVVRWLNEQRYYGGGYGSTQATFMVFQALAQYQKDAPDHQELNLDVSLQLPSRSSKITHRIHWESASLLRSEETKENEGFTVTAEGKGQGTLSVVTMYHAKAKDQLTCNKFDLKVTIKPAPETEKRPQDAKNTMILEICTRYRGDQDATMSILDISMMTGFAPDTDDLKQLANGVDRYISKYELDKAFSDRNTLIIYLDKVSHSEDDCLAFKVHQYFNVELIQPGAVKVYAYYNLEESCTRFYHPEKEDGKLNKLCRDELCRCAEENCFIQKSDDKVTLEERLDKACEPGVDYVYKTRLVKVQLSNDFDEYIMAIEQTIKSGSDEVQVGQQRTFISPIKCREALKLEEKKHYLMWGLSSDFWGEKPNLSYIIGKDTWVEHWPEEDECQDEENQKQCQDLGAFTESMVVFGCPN

B1: Factor B (protein)
chain: TPWSLARPQGSCSLEGVEIKGGSFRLLQEGQALEYVCPSGFYPYPVQTRTCRSTGSWSTLKTQDQKTVRKAECRAIHCPRPHDFENGEYWPRSPYYNVSDEISFHCYDGYTLRGSANRTCQVNGRWSGQTAICDNGAGYCSNPGIPIGTRKVGSQYRLEDSVTYHCSRGLTLRGSQRRTCQEGGSWSGTEPSCQDSFMYDTPQEVAEAFLSSLTETIEGVDAEDGHGPGEQQKRKIVLDPSGSMNIYLVLDGSDSIGASNFTGAKKCLVNLIEKVASYGVKPRYGLVTYATYPKIWVKVSEADSSNADWVTKQLNEINYEDHKLKSGTNTKKALQAVYSMMSWPDDVPPEGWNRTRHVIILMTDGLHNMGGDPITVIDEIRDLLYIGKDRKNPREDYLDVYVFGVGPLVNQVNINALASKKDNEQHVFKVKDMENLEDVFYQMIDESQSLSLCGMVWEHRKGTDYHKQPWQAKISVIRPSKGHESCMGAVVSEYFVLTAAHCFTVDDKEHSIKVSVGGEKRDLEIEVVLFHPNYNINGKKEAGIPEFYDYDVALIKLKNKLKYGQTIRPICLPCTEGTTRALRLPPTTTCQQQKEELLPAQDIKALFVSEEEKKLTRKEVYIKNGDKKGSCERDAQYAPGYDKVKDISEVVTPRFLCTGGVSPYADPNTCRGDSGGPLIVHKRSRFIQVGVISWGVVDVCKNQKRQKQVPAHARDFHINLFQVLPWLKEKLQDEDLGFL
  Factor B activation (cleavage of factor B into Bb and Ba by factor D, SDS-PAGE): Factor B was activated very rapidly in the presence of Human C3
  Factor B cleavage time course (convertase formation): C3b formed a convertase very efficiently
